Source: patent publication US20150037339A1 (Regeneron, published 2015)
Blank lines part the entries; values can stand above or below the binder they belong to.

Key:
[1] = molecular target: T1, Activin A (homodimer of two inhibin βA subunits; R&D Systems, #338-AC) (human, UniProt P08476 311-426); test: SPR blocking: 5 nM Activin A + 1.88 nM binder over hActRIIA-hFc surface
T1 construct: Bought protein; also called inhibin-βA dimer
T1 sequence: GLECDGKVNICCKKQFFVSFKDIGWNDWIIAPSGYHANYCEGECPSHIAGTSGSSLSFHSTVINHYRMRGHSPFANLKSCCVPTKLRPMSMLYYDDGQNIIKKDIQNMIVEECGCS
Procedure: (§1) The binding signal (RU) was measured at 150 seconds after the start of the injection, and this signal was subtracted by the measured RU value for a negative control reference surface to determine the specific binding signal.

[2] = molecular target: T1, Activin A (homodimer of two inhibin βA …); test: SPR blocking: 5 nM Activin A + 0.94 nM binder over hActRIIB-hFc (Control 4) surface
[3] = molecular target: T1, Activin A (homodimer of two inhibin βA …); test: SPR blocking: 5 nM Activin A + 30 nM binder over Follistatin-288 surface
Procedure: as §1

[4] = molecular target: T1, Activin A (homodimer of two inhibin βA …); test: SPR blocking: 5 nM Activin A + 0.94 nM binder over hActRIIA-hFc surface
Procedure: as §1

[5] = molecular target: T1, Activin A (homodimer of two inhibin βA …); test: SPR blocking: 5 nM Activin A + 3.75 nM binder over hActRIIB-hFc (Control 4) surface
Procedure: as §1

[6] = molecular target: T1, Activin A (homodimer of two inhibin βA …); test: SPR blocking: 5 nM Activin A + 1.88 nM binder over Follistatin-288 surface
Procedure: as §1

[7] = molecular target: T1, Activin A (homodimer of two inhibin βA …); test: SPR blocking: 5 nM Activin A + 7.50 nM binder over hActRIIB-hFc (Control 4) surface
[8] = molecular target: T1, Activin A (homodimer of two inhibin βA …); test: SPR blocking: 5 nM Activin A + 15 nM binder over hActRIIA-hFc surface
Procedure: as §1

[9] = molecular target: T1, Activin A (homodimer of two inhibin βA …); test: SPR blocking: 5 nM Activin A + 60 nM binder over hActRIIA-hFc surface
Procedure: as §1

[10] = molecular target: T1, Activin A (homodimer of two inhibin βA …); test: SPR blocking: 5 nM Activin A + 7.50 nM binder over hActRIIA-hFc surface
Procedure: as §1

[11] = molecular target: T1, Activin A (homodimer of two inhibin βA …); test: SPR blocking: 5 nM Activin A + 60 nM binder over Follistatin-288 surface
Procedure: as §1

[12] = molecular target: T1, Activin A (homodimer of two inhibin βA …); test: SPR blocking: 5 nM Activin A + 15 nM binder over Follistatin-288 surface
Procedure: as §1

[13] = molecular target: T1, Activin A (homodimer of two inhibin βA …); test: SPR blocking: 5 nM Activin A + 30 nM binder over hActRIIB-hFc (Control 4) surface
Procedure: as §1

[14] = molecular target: T1, Activin A (homodimer of two inhibin βA …); test: SPR blocking: 5 nM Activin A + 0.94 nM binder over Follistatin-288 surface
Procedure: as §1

[15] = molecular target: T1, Activin A (homodimer of two inhibin βA …); test: SPR blocking: 5 nM Activin A + 30 nM binder over hActRIIA-hFc surface
Procedure: as §1

[16] = molecular target: T1, Activin A (homodimer of two inhibin βA …); test: SPR blocking: 5 nM Activin A + 15 nM binder over hActRIIB-hFc (Control 4) surface
[17] = molecular target: T1, Activin A (homodimer of two inhibin βA …); test: SPR blocking: 5 nM Activin A + 60 nM binder over hActRIIB-hFc (Control 4) surface
Procedure: as §1

[18] = molecular target: T1, Activin A (homodimer of two inhibin βA …); test: SPR blocking: 5 nM Activin A + 3.75 nM binder over hActRIIA-hFc surface
Procedure: as §1

[19] = molecular target: T1, Activin A (homodimer of two inhibin βA …); test: SPR blocking: 5 nM Activin A + 0.00 nM binder over hActRIIA-hFc surface
Procedure: as §1

[20] = molecular target: T1, Activin A (homodimer of two inhibin βA …); test: SPR blocking: 5 nM Activin A + 0 nM binder over Follistatin-288 surface
Procedure: as §1

[21] = molecular target: T1, Activin A (homodimer of two inhibin βA …); test: SPR blocking: 5 nM Activin A + 7.5 nM binder over Follistatin-288 surface
Procedure: as §1

[22] = molecular target: T1, Activin A (homodimer of two inhibin βA …); test: SPR blocking: 5 nM Activin A + 0.00 nM binder over hActRIIB-hFc (Control 4) surface
Procedure: as §1

[23] = molecular target: T1, Activin A (homodimer of two inhibin βA …); test: SPR blocking: 5 nM Activin A + 1.88 nM binder over hActRIIB-hFc (Control 4) surface
Procedure: as §1

[24] = molecular target: T1, Activin A (homodimer of two inhibin βA …); test: SPR blocking: 5 nM Activin A + 3.75 nM binder over Follistatin-288 surface
Procedure: as §1

BMP9 = molecular target: T2, BMP9 (human, UniProt Q9UK05 320-429); test: cell-based or functional assay
T2 sequence (looked up): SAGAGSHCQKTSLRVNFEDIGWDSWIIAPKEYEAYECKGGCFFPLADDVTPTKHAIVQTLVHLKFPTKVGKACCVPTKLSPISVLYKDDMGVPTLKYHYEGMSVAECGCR

BMP10 = molecular target: T3, BMP10 (human, UniProt O95393 317-424); test: cell-based or functional assay
T3 sequence (looked up): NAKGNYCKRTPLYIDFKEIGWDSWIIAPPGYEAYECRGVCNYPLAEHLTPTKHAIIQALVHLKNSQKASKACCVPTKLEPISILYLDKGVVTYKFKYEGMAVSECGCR

% bound RU w/no inhibitor [1]: 222%
% bound RU w/no inhibitor [2]: 131%
% bound RU w/no inhibitor [3]: 11%
% bound RU w/no inhibitor [4]: 236%
% bound RU w/no inhibitor [5]: 127%
% bound RU w/no inhibitor [6]: 148%
% bound RU w/no inhibitor [7]: 113%
% bound RU w/no inhibitor [8]: 50%
% bound RU w/no inhibitor [9]: 3%
% bound RU w/no inhibitor [10]: 128%
% bound RU w/no inhibitor [11]: 13%
% bound RU w/no inhibitor [12]: 60%
% bound RU w/no inhibitor [13]: 5%
% bound RU w/no inhibitor [14]: 156%
% bound RU w/no inhibitor [15]: 5%
% bound RU w/no inhibitor [16]: 56%
% bound RU w/no inhibitor [17]: 5%
% bound RU w/no inhibitor [18]: 188%
% bound RU w/no inhibitor [19]: 100%
% bound RU w/no inhibitor [20]: 100%
% bound RU w/no inhibitor [21]: 116%
% bound RU w/no inhibitor [22]: 100%
% bound RU w/no inhibitor [23]: 129%
% bound RU w/no inhibitor [24]: 138%
B1: human ActRIIA expressed with a C-terminal human Fc tag (hActRIIA-Fc; R&D Systems, #340-R[…]) (Fc fusion)
chain: not shown
notes: Bought; also called hActRIIA-hFc; not shown: C-terminal human Fc tag

IC50 [M]; inhibition of 800 pM BMP9 in W-20-17/BRE-luc cells (BMP9): 2e-09 M
IC50 [M]; inhibition of 4 nM BMP10 in W-20-17/BRE-luc cells (BMP10): 1e-09 M
% bound RU w/no inhibitor [1]: 266%
% bound RU w/no inhibitor [2]: 149%
% bound RU w/no inhibitor [3]: 1%
% bound RU w/no inhibitor [4]: 276%
% bound RU w/no inhibitor [5]: 144%
% bound RU w/no inhibitor [6]: 163%
% bound RU w/no inhibitor [7]: 130%
% bound RU w/no inhibitor [8]: 51%
% bound RU w/no inhibitor [9]: 1%
% bound RU w/no inhibitor [10]: 160%
% bound RU w/no inhibitor [11]: 1%
% bound RU w/no inhibitor [12]: 43%
% bound RU w/no inhibitor [13]: 3%
% bound RU w/no inhibitor [14]: 169%
% bound RU w/no inhibitor [15]: 2%
% bound RU w/no inhibitor [16]: 51%
% bound RU w/no inhibitor [17]: 2%
% bound RU w/no inhibitor [18]: 231%
% bound RU w/no inhibitor [19]: 100%
% bound RU w/no inhibitor [20]: 100%
% bound RU w/no inhibitor [21]: 120%
% bound RU w/no inhibitor [22]: 100%
% bound RU w/no inhibitor [23]: 148%
% bound RU w/no inhibitor [24]: 151%
B2: Control 4 (Activin Type IIB receptor-Fc fusion molecule; soluble Activin RIIB receptor extracellular domain E23-P133 of NP-001097, Gly-Ser linker, C-terminal … (Fc fusion)
chain: EAETRECIYYNANWELERTNQSGLERCEGEQDKRLHCYASWANSSGTIELVKKGCWLDDFNCYDRQECVATEENPQVYFCCCEGNFCNERFTHLPEAGGPEVTYEPPPTAPSG[omitted - human IgG1 Fc]
notes: also called hActRIIB-hFc; ActRIIB-hFc
